Experiment [1] addresses IL1R1 in HepG2 cells (wild-type and ANGPTL3 knockout; Figure 6G–J) (human) (UniProt P14778). The experiment can be described thus: co-IP; HepG2 cells, wild-type and ANGPTL3 knockout; NP40 lysis buffer; indicated antibody and protein G magnetic beads, 4 °C; washed with 500 mM NaCl; western blotting and quantitative analysis. On the technique in general: In western blotting, separated proteins are transferred to a membrane and probed.

Protein sequences, listed by entry. Tags and fused reporters are not part of them. Lines headed by an entry give the natural chain unless they say otherwise; changes in a name come on top. Residues count along the entry.
UniProt P14778: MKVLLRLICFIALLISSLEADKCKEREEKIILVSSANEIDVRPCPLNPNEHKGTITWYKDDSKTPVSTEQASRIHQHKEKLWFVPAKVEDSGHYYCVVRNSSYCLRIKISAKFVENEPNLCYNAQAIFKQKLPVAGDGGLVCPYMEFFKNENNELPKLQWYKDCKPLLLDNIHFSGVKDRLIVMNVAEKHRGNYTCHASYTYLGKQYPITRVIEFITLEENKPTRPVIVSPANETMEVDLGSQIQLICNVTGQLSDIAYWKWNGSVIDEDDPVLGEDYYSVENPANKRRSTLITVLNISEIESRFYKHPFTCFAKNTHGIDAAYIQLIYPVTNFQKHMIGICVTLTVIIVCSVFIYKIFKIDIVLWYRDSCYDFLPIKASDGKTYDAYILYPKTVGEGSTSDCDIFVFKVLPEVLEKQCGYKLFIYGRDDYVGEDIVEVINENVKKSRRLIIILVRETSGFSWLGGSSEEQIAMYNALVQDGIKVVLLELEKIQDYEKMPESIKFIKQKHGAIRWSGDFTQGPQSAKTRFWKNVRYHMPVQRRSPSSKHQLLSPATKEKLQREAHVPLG
IL1R1 N-terminal region (truncation mutant, N-terminal 1–360 aa): residues 18-360 of P14778
UniProt Q9NPH3, residues 21-570: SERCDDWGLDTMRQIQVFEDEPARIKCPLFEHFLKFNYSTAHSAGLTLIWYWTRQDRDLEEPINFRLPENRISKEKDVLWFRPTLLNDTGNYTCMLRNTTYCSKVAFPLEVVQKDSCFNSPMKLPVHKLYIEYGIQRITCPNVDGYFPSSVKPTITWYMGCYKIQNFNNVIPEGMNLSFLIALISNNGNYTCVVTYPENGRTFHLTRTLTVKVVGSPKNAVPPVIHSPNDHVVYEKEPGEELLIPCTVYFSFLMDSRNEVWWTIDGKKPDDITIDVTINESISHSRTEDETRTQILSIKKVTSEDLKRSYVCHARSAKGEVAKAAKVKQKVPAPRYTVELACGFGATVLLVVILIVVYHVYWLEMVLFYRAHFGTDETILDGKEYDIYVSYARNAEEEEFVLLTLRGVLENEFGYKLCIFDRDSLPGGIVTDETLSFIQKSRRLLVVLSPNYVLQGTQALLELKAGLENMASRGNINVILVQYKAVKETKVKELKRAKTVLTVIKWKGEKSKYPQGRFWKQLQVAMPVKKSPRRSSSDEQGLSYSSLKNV
UniProt Q99836: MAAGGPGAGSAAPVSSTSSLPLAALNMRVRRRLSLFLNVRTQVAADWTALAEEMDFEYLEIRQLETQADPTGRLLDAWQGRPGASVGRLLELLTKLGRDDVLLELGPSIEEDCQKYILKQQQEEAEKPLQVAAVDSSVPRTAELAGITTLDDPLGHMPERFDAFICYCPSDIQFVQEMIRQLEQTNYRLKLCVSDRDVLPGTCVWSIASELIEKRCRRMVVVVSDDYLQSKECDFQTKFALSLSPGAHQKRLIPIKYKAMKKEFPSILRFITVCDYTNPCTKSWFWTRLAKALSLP

In experiment [2] the target is IL1RAP in HepG2 cells (wild-type and ANGPTL3 knockout; Figure 6G–H) (human) (UniProt Q9NPH3). The experiment is described as above.
Experiment [3] concerns the target IL-1 receptor type 1 (IL1R1), full-length, overexpressed (human) (UniProt P14778). The experiment can be described thus: co-IP; HEK293T cells transfected with the indicated plasmids; NP40 lysis buffer (20 mM Tris–HCl pH 7.4, 150 mM NaCl, 1 mM EDTA, 1% NP40); indicated antibody and protein G magnetic beads, 4 °C, 4 h or overnight; washed with lysis buffer with 500 mM NaCl; western blotting; in some panels with or without overexpressed ANGPTL3.

Experiment [4] addresses IL-1R accessory protein (IL1RAP), full-length, overexpressed (human) (UniProt Q9NPH3). The experiment is described as above.
Experiment [5] has as its target IL-1 receptor type 1 (IL1R1), full-length, overexpressed (human) (UniProt P14778). The description is as above. This is another data set of the same source.
A further experiment concerns the target T1, IKKβ, overexpressed (UniProt O14920).
T1 sequence: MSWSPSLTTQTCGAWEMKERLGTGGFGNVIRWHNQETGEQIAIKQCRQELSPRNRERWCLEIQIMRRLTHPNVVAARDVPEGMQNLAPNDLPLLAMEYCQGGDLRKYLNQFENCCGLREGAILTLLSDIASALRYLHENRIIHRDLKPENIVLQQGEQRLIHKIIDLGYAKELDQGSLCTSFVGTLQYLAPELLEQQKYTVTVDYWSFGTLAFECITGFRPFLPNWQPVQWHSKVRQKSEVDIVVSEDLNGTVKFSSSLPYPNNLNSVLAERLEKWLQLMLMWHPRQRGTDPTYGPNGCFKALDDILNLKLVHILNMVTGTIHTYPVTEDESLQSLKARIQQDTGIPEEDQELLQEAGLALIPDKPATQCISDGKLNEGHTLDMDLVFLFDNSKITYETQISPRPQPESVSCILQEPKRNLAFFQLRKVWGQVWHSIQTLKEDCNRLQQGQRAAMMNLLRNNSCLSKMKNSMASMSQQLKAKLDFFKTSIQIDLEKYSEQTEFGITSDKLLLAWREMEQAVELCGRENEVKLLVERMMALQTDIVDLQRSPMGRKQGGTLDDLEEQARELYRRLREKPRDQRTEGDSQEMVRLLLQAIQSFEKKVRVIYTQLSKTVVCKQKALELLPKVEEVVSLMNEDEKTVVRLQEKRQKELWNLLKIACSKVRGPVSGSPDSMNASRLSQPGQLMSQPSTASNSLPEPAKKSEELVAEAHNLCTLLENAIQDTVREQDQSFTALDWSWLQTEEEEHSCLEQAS
The description is as above.

Experiment [6] addresses IL-1R accessory protein (IL1RAP), full-length, overexpressed (human) (UniProt Q9NPH3). The description is as above. The source holds these as a separate data set.
In experiment [7] the target is IL1R1 N-terminal region (truncation mutant, N-terminal 1–360 aa) (human) (UniProt P14778). Described as above.
Experiment [8] concerns the target myeloid differentiation primary response protein 88 (MyD88), overexpressed (UniProt Q99836). Described as above.
Experiment [9] has as its target endogenous IL1R1 (human (endogenous in HepG2)) (UniProt P14778). Nature of the experiment: co-IP; endogenous proteins in HepG2 cells, at the resting stage and under IL-1β treatment; NP40 lysis buffer; indicated antibody and protein G magnetic beads, 4 °C; washed with 500 mM NaCl; western blotting.
In experiment [10] the target is endogenous IL1RAP (human (endogenous in HepG2)) (UniProt Q9NPH3). The description is as above.

Like-named read-outs stand apart in the source and are kept apart here. Results are given in words; binding and its absence hold for the method and conditions named. In cells and extracts the contact can be indirect. Some results given as binding are weak or reduced against the parent protein; the word gives no strength.

Regarding “IL1RAP in HepG2 cells (wild-type and ANGPTL3 knockout; Figure 6G–H) (from UniProt Q9NPH3 21-570) (receptor)”, the binding entry in experiment [1] and in experiment [2] was “binds” throughout.

As to “IL-1R accessory protein (IL1RAP), full-length, overexpressed (from UniProt Q9NPH3 21-570) (receptor)”, the binding entry in [3] and in experiment [4] was “binds” throughout.

“IL-1 receptor type 1 (IL1R1), full-length, overexpressed (from UniProt P14778 18-569)”: the binding result in experiment [3] is recorded as “binds”.

B1: ANGPTL3 241–460 aa (C-terminal truncation mutant, FLD region) (domain or fragment, UniProt Q9Y5C1 241-460)
chain: GIPAECTTIYNRGEHTSGMYAIRPSNSQVFHVYCDVISGSPWTLIQHRIDGSQNFNETWENYKYGFGRLDGEFWLGLEKIYSIVKQSNYVLRIELEDWKDNKHYIEYSFYLGNHETNYTLHLVAITGNVPNAIPENKDLVFSTWDHKAKGHFNCPEGYSGGWWWHDECGENNLNGKYNKPRAKSKPERRRGLSWKSQNGRLYSIKSTKMLIHPTDSESFE
On to B1, for which the binding entry in experiment [5] was “binds”.

B2: Angiopoietin like 3 (ANGPTL3), full-length, overexpressed (protein, UniProt Q9Y5C1 17-460)
chain: SRIDQDNSSFDSLSPEPKSRFAMLDDVKILANGLLQLGHGLKDFVHKTKGQINDIFQKLNIFDQSFYDLSLQTSEIKEEEKELRRTTYKLQVKNEEVKNMSLELNSKLESLLEEKILLQQKVKYLEEQLTNLIQNQPETPEHPEVTSLKTFVEKQDNSIKDLLQTVEDQYKQLNQQHSQIKEIENQLRRTSIQEPTEISLSSKPRAPRTTPFLQLNEIRNVKHDGIPAECTTIYNRGEHTSGMYAIRPSNSQVFHVYCDVISGSPWTLIQHRIDGSQNFNETWENYKYGFGRLDGEFWLGLEKIYSIVKQSNYVLRIELEDWKDNKHYIEYSFYLGNHETNYTLHLVAITGNVPNAIPENKDLVFSTWDHKAKGHFNCPEGYSGGWWWHDECGENNLNGKYNKPRAKSKPERRRGLSWKSQNGRLYSIKSTKMLIHPTDSESFE
In the case of B2, the binding entry with IKKβ, overexpressed is on record as “no binding”; in [5] it was “binds”; in [6], “binds”; in experiment [7], “binds”; in experiment [8], “binds”.

B3: ANGPTL3 D42N (clinical loss-of-function mutant) (protein, UniProt Q9Y5C1 17-460)
chain: SRIDQDNSSFDSLSPEPKSRFAMLDNVKILANGLLQLGHGLKDFVHKTKGQINDIFQKLNIFDQSFYDLSLQTSEIKEEEKELRRTTYKLQVKNEEVKNMSLELNSKLESLLEEKILLQQKVKYLEEQLTNLIQNQPETPEHPEVTSLKTFVEKQDNSIKDLLQTVEDQYKQLNQQHSQIKEIENQLRRTSIQEPTEISLSSKPRAPRTTPFLQLNEIRNVKHDGIPAECTTIYNRGEHTSGMYAIRPSNSQVFHVYCDVISGSPWTLIQHRIDGSQNFNETWENYKYGFGRLDGEFWLGLEKIYSIVKQSNYVLRIELEDWKDNKHYIEYSFYLGNHETNYTLHLVAITGNVPNAIPENKDLVFSTWDHKAKGHFNCPEGYSGGWWWHDECGENNLNGKYNKPRAKSKPERRRGLSWKSQNGRLYSIKSTKMLIHPTDSESFE
For the molecule B3, the binding result in [5] is “binds”.

B4: ANGPTL3 T383S (clinical loss-of-function mutant) (protein, UniProt Q9Y5C1 17-460)
chain: SRIDQDNSSFDSLSPEPKSRFAMLDDVKILANGLLQLGHGLKDFVHKTKGQINDIFQKLNIFDQSFYDLSLQTSEIKEEEKELRRTTYKLQVKNEEVKNMSLELNSKLESLLEEKILLQQKVKYLEEQLTNLIQNQPETPEHPEVTSLKTFVEKQDNSIKDLLQTVEDQYKQLNQQHSQIKEIENQLRRTSIQEPTEISLSSKPRAPRTTPFLQLNEIRNVKHDGIPAECTTIYNRGEHTSGMYAIRPSNSQVFHVYCDVISGSPWTLIQHRIDGSQNFNETWENYKYGFGRLDGEFWLGLEKIYSIVKQSNYVLRIELEDWKDNKHYIEYSFYLGNHETNYTLHLVAITGNVPNAIPENKDLVFSSWDHKAKGHFNCPEGYSGGWWWHDECGENNLNGKYNKPRAKSKPERRRGLSWKSQNGRLYSIKSTKMLIHPTDSESFE
Turning to B4, the binding entry in experiment [5] is “binds”.

B5: endogenous ANGPTL3 (protein, UniProt Q9Y5C1 17-460)
chain: SRIDQDNSSFDSLSPEPKSRFAMLDDVKILANGLLQLGHGLKDFVHKTKGQINDIFQKLNIFDQSFYDLSLQTSEIKEEEKELRRTTYKLQVKNEEVKNMSLELNSKLESLLEEKILLQQKVKYLEEQLTNLIQNQPETPEHPEVTSLKTFVEKQDNSIKDLLQTVEDQYKQLNQQHSQIKEIENQLRRTSIQEPTEISLSSKPRAPRTTPFLQLNEIRNVKHDGIPAECTTIYNRGEHTSGMYAIRPSNSQVFHVYCDVISGSPWTLIQHRIDGSQNFNETWENYKYGFGRLDGEFWLGLEKIYSIVKQSNYVLRIELEDWKDNKHYIEYSFYLGNHETNYTLHLVAITGNVPNAIPENKDLVFSTWDHKAKGHFNCPEGYSGGWWWHDECGENNLNGKYNKPRAKSKPERRRGLSWKSQNGRLYSIKSTKMLIHPTDSESFE
As to B5, the binding entry in [9] and in experiment [10] was “binds” in each case.

B6: ANGPTL3 1–240 aa (N-terminal truncation mutant) (domain or fragment, UniProt Q9Y5C1 17-240)
chain: SRIDQDNSSFDSLSPEPKSRFAMLDDVKILANGLLQLGHGLKDFVHKTKGQINDIFQKLNIFDQSFYDLSLQTSEIKEEEKELRRTTYKLQVKNEEVKNMSLELNSKLESLLEEKILLQQKVKYLEEQLTNLIQNQPETPEHPEVTSLKTFVEKQDNSIKDLLQTVEDQYKQLNQQHSQIKEIENQLRRTSIQEPTEISLSSKPRAPRTTPFLQLNEIRNVKHD
Take B6: in experiment [5], the binding entry is on record as “no binding”.

B7: ANGPTL3 224–460 aa (C-terminal truncation mutant) (domain or fragment, UniProt Q9Y5C1 224-460)
chain: RTTPFLQLNEIRNVKHDGIPAECTTIYNRGEHTSGMYAIRPSNSQVFHVYCDVISGSPWTLIQHRIDGSQNFNETWENYKYGFGRLDGEFWLGLEKIYSIVKQSNYVLRIELEDWKDNKHYIEYSFYLGNHETNYTLHLVAITGNVPNAIPENKDLVFSTWDHKAKGHFNCPEGYSGGWWWHDECGENNLNGKYNKPRAKSKPERRRGLSWKSQNGRLYSIKSTKMLIHPTDSESFE
With B7, the binding entry in experiment [5] is given as “binds”.

B8: ANGPTL3 1–221 aa (N-terminal truncation mutant) (domain or fragment, UniProt Q9Y5C1 17-221)
chain: SRIDQDNSSFDSLSPEPKSRFAMLDDVKILANGLLQLGHGLKDFVHKTKGQINDIFQKLNIFDQSFYDLSLQTSEIKEEEKELRRTTYKLQVKNEEVKNMSLELNSKLESLLEEKILLQQKVKYLEEQLTNLIQNQPETPEHPEVTSLKTFVEKQDNSIKDLLQTVEDQYKQLNQQHSQIKEIENQLRRTSIQEPTEISLSSKPR
As for B8, the binding result in experiment [5] is “no binding”.

The values are drawn from article PMC11149415.
